Measured values from PMC4207660, “Identification and Characterization of Hundreds of Potent and Selective Inhibitors of Trypanosoma brucei Growth from a Kinase-Targeted Library Screening Campaign” (PLoS Neglected Tropical Diseases, 2014).
Values after ≈ are worked out from the molar mass of the structure shown. Read-outs that look alike come from different tables or passages of the source.

How the values were obtained:
[1] = CLND kinetic solubility assay; format: physicochemical; details: phosphate buffered saline, pH 7.4, aqueous buffer, kinetic from dmso stock; Measured; read-out: Aq Sol
Protocol: 5 µL of 10 mM DMSO stock solution was diluted to 100 µL with pH 7.4 phosphate buffered saline, equilibrated for 1 hour at room temperature, filtered through Millipore MultiscreenHTS-PCF filter plates (MSSL BPC). The filtrate was quantified by suitably calibrated flow injection Chemi-Luminescent Nitrogen Detection.

[2] = molecular target: T1, Human Serum Albumin (HSA) (Homo sapiens, UniProt P02768); assay: Protein binding assay (HPLC stationary phase), HSA; format: in vitro ADME; details: Measured
T1 construct: purchased Chiral Technologies, France
Protocol: Chemically bonded Human Serum Albumin (HSA) and Alpha-1-acidglycoprotein HPLC stationary phases (Chiral Technologies, France) were used for measuring compounds' binding to plasma proteins, applying linear gradient elution up to 30% iso-propanol. The run time was 6 min, including the re-equilibration of the stationary phases with the 50 mM pH7.4 ammonium acetate buffer. The obtained gradient retention times were standardised using a calibration set of mixtures as described in the references. The average standard error of the assay depends on the binding strength and kinetics of the compounds.

[3] = system: T. brucei brucei parasites (Lister 427 strain); assay: Dose response growth inhibition assay (resazurin, 72 h); format: cell-based; details: Trypanosoma brucei; T. b. brucei growth inhibition; read-out: Tbb pEC50 (converted)
Protocol: Greiner sterile black clear bottom 384-well assay plates were pre-dispensing with 200 nL of compound in each well, from master plates at 1 mM (100% DMSO) containing selection from the GSK compound collection. Controls of 0% response (control 1, 200 nL of 100%DMSO) and 100% response (control 2, 200 nL of 1 mM pentamidine) were included in each assay plate in columns 6 and 18, respectively. Plates containing 200 nL of 100% DMSO were included randomly in the assay, to assess quality through all process. […] After this period, 10 µL of 200 µM resazurin solution in prewarmed HMI-9 were added to each well, and plates were allowed to incubate 2 hours more prior fluorescence reading in a Wallac EnVision Multilabel Plate Reader (Perkin-Elmer). Raw fluorescent data from the Envision plate reader were uploaded into GSK HTS database (ActivityBase). Activity of each well was normalized as a percentage of inhibition per-plate basis using the following equation: [drawing 1]
For dose-response experiments, serial compound dilutions of selected hits from the primary campaign were plotted against compound concentration. Dose response master plates were prepared by 3-fold dilutions (starting with 10 mM DMSO stock solutions), providing 11 concentrations. From these master plates, 200 nL per well was stamped in final assay plates, including the same controls describe in the primary single shot assay. […]

[4] = molecular target: Cytochrome P450 (CYP450) (Homo sapiens, UniProt P08684); assay: Cytochrome P450 inhibition profile; format: in vitro ADME; details: Measured
Protocol: The P450 inhibition profile of the inhibitors was determined as previously described.

solubility kinetic at 1 h [1] [µM] | HSA % binding [2] [%] | IC50 ([4]; CYP3A4, VG substrate, read-out: CYP3A4VG pXC50 (converted)) [µM] | IC50 ([4]; CYP3A4, VR substrate, read-out: CYP3A4VR pXC50 (converted)) [µM] | SMILES | EC50 [3] [nM]
170 (≈ 62.1 µg/mL) | 95.5 | – | – | O=C(NC(CO)c1ccccc1)c1coc(-c2c[nH]c3nccc(F)c23)c1 (centres unmarked) [NEU-0001174] | –
– | – | – | – | O=C(c1ccc(-c2ccnc(NCCc3ccc(O)cc3)n2)s1)N1CCNCC1 [NEU-0001172] | 79.4
340 (≈ 116 µg/mL) | 92.8 | 12.6 | 25.1 | CC(C)Nc1nc(Nc2ccc(S(N)(=O)=O)cc2)ncc1Cl [NEU-0001173] | 79.4
